Measured values from the supplement of paper PMC11417369.
Some of the results follow.

tested on: PfAP2-HC AP2 domain (GST-tagged); assay: gcPBM binding intensity (ln(normalized median fluorescence intensity)); higher = stronger DNA binding
Method in brief: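 Using an Agilent 4 × 180k array, primer-extended double-stranded 36-bp intergenic genomic probes and negative controls were exposed for 1 h to GST-fused P. falciparum DNA-binding domains expressed in E. coli. Binding was carried out in 1× PBS with 1% milk, 0.2 mg/ml BSA, 0.5% salmon testes DNA and 0.03% Triton X-100, and protein was detected with Alexa488 anti-GST antibody and a 488 nm scan. Binding intensity is the highest Masliner-normalised natural-log median intensity across replicate spots of either probe orientation.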

Sequence	gcPBM binding intensity (ln)
TAATAGAATATGATGGTGCAGCAGTCTTATTTTTCA	9.61
TTTCTTTCTTCACATATATATATATATATATTTATA [TGCATGCA_negctrl_site341]	9.84
TTAGCCATTAATTCTCTACACACCTTTATGTTATTT [CACACA_site9212]	9.97
TTTTATAATATTTAAAGTACATTCTAAAAATATAAT [XGTACX_site8033]	9.4
CCCCCCCACGGACACACACACATACATACCACATAT [CACACA_site5303]	11.3
TATTAAACGAAACACACACACACACCCATATATAAA [CACACA_site759]	11.5
AAAAAGAATGTGAACACACACATTGAATCTAATTTA [CACACA_site6711]	9.89
AGATGATATATTATATATCCTTTTAATAAATGTAAT [CACACA_negctrl_site730]	9.48
ACATATAATATATATATATATATATATATATATAAT [GTGCAC_negctrl_site648]	9.5
TATATAAAAAATTCAATACACACCATATATAAATAT [CACACA_site3987]	10.2
TATTCATATTTAAAGGTGCAATATTTATTTTGTACA	9.47
TATTCTAATTTTTAAACACACAAATATAAATAAGTA [CACACA_site3149]	9.52
CTATTTATTATATATACATGCATATATATATTAATA [TGCATGCA_site527]	9.38
TAAAAATGTGTATGTACACACTTTATTTTTAATACA [CACACA_site7235]	9.69
AAAAAAAAAAAAATAGGTACGTAAATATTTCTTTAA [XGTACX_site6423]	9.56
TCTTTTAGTTTTATCCACATAATAAAAAGCAAAAAA [GTGCAC_negctrl_site368]	9.42
TATTCTTCAATTTAAAGTACAAAAATTACTATACTT [XGTACX_site6599]	9.41
AAAAAAAAAAAAAAGAGTACTTTTTTCTCATTACTA [XGTACX_site8353]	9.39
ATTGTGGCAATATATTGTACATGTAATATAAATATA [XGTACX_site5415]	9.75
AATTAAAATATATATATACACACGTAATTATATATA [CACACA_site3819]	9.67
AAAAAAAAAGGTAACGCATGCTTTTAGATTATATTA [TGCATGCA_site398]	9.47
TATAATTATATTTGGAGTACAAATTTTTTTTTTTTT [XGTACX_site7494]	9.4
AAGTATGCTTGCTACTTATTAAGTGGCAATATAATT [XGTACX_negctrl_site74]	9.44

Sequence	gcPBM binding intensity (ln)
TTTGTATAGTTGTAGGTGCATATCATTTTTAAATGT [GTGCAC_site9708]	9.84
TGTTAATAAAGGTGTACACAAAATAAAAAAAATTAT [CACACA_site4288]	9.93
AAATATATATGAAGATGTACATATATATATGTAAAT [XGTACX_site4039]	9.87
TAACACTTATAAAAAAGTACTGATGAAATAATACTA [XGTACX_site7305]	9.57
AAAAATTCCAGACACACACACACATATAAATAAATA [CACACA_site1232]	11.1
AGAACCATATATAAATGTACATGTTAATATGAATAA [XGTACX_site130]	9.74
GGACAAAAAAAAAAAATAAAATAAAAATAAATAAAT [XGTACX_negctrl_site106]	9.36
ATTTATTAAATAAAAAGTACAAAATAAGAAAGAAGA [XGTACX_site6935]	9.78
TTATATATATCTAATTGTACAATATTATGTTCATTA [XGTACX_site7479]	9.66
ATATATAATATAATATGTACATAAAATTTTAACATT [XGTACX_site5773]	9.93
AAAAAAACAGTGAATGCACACATTTAAGATCCATAT [CACACA_site3148]	9.84
TATATTCCCTTAATCACACATAAATAAAAAAAAATA [CACACA_site6094]	9.44
AAAAAAAAAAAAACTACACACATACAAATATTTATA [CACACA_site5430]	9.94
AGTATACTCGGACACACACACACATATATATATATA [CACACA_site5031]	11.7
TACATACATACAGGAGTGCATATATCACAATTATTA	9.65
TATTTCCTTTTTCTTGTTATTCATGAGAAAAAATGA [CACACA_negctrl_site482]	9.26
GAAATTTTTAATGTGGTGCACAGGAAATTTTTTCTT	9.61
AAAATAATAATAGGCACACATATATATATATATATA [CACACA_site2058]	9.78
ACGACTAAATATATGAGTACATATATATATAAATAT [XGTACX_site7522]	9.71
AAGAATCATATTTAAACACACATACAGATATATATA [CACACA_site5787]	9.79
TGCAAAAAATTCCACACACACACACCCATATAAATA [CACACA_site1230]	10.5
TCTAAAATAAATAATGCATGTTAAAAAAAAATATAT [TGCATGCA_site562]	9.6
AGTTATATGATTAATACACACAACAAATGTTTCTTC [CACACA_site1092]	9.76

Sequence	gcPBM binding intensity (ln)
AATTTGGTGTGTGTAAAAGTATGTGTCTATATTTAT [GTGCAC_negctrl_site166]	10.3
ATGTATGTTTATTACTATTTTGAGAATAGACTATAA [CACACA_negctrl_site1366]	9.52
TTTCTTTATAAATTAATATTCACAACACAAAATATA [CACACA_negctrl_site450]	9.39
AAGAAAATAAAAAATAAGCATAATATGATATGATAT [TGCATGCA_negctrl_site196]	10.1
AAAAATTTGGCATACACACACACACCGACACAGACA [CACACA_site4489]	10.5
GTGCATATAAGGAAGTGTACGAAAAAAAATATTCCA [XGTACX_site8490]	9.58
CAAATATGTCTTATTCGTACACATATATATATATAT [XGTACX_site8817]	9.79
AAAAAATACTTATAAAGTACTAATATATATAAGCAG [XGTACX_site743]	9.74
TAATTAAAATTAAGAAGTACATTTTACTTTTAATGC [XGTACX_site5120]	9.29
TATCATGTTTTTATGGTGCATGAAATCACACATTGA	9.49
GAGAAATTTATACATACACACATATATATATTATAT [CACACA_site4038]	9.88
AATACAAACCAAAAAGTAAATACATCAACATGATCA [CACACA_negctrl_site140]	9.74
TTTATTAATAAGAAATGTACACAAAATTATTTCCAA [XGTACX_site5970]	9.49
ATAGAGTCATTCCTCACACACACGCTATATGAATAG [CACACA_site2047]	10.5
CCTGAAATTTTATTATGTACATATTATAAAATGATT [XGTACX_site1434]	9.47
TGGCACTAAAAAAATAAACACACAGATTTATATAAT [CACACA_site8386]	9.74
ATAACCACATAAAATATAATTATATATATATATATA [CACACA_negctrl_site603]	9.97
ATTCCTCCCATGGAATGTACTCATCAAATAAATAAA [XGTACX_site6543]	9.31
TACACCATGATACATACACACAGACATATACTCATT [CACACA_site4708]	9.96
TCCAAATGTTTGCGTTGTACTCTTTTTTTAAAACTA [XGTACX_site5148]	9.73
AAATTTTCATGTGTTGCATGCTGAACTATTTTATCA [TGCATGCA_site856]	9.76
AATAAAAAGGAAAGGTATATGTGTGCCCTTGTGTTA [TGCATGCA_negctrl_site83]	9.91
AGTGGATGAGGACATACACACACACCGAAGTTGATA [CACACA_site9132]	10.3

Sequence	gcPBM binding intensity (ln)
AAGGAATATATATACATACACACATATATATATATA [CACACA_site1665]	9.89
AAAAAAAAAAAAAAAAAAAAAAATATATATATATAT [XGTACX_negctrl_site33]	9.56
ATATAATAAATATATTGTACATATGAATCTACTAAA [XGTACX_site7610]	9.57
TAAAAAATGATAGAAGTGCATAAAATAATATATATA [GTGCAC_site9904]	9.82
TTTCTATTTCCTTCACATCTTTTCATCTTTTTTTTT [CACACA_negctrl_site1110]	9.84
GACTTGAAGAAATAAGTGCAGAGTTTTATTTTAATT [GTGCAC_site9912]	9.49
AAAAAATTCCTATATACACACACGCACATATTTATA [CACACA_site6192]	10.2
TATTTTTTCCTTTGTTTTTTAAACTATCTTAACTAA [XGTACX_negctrl_site519]	9.53
AAATAAATAAAAAACACACACAAATAAATAAATATA [CACACA_site2249]	10.7
TTAAAATAAAGAGCAGTGCGCATATTTTGTTATTAT [GTGCAC_site9753]	9.73
ATAAAAAAATATGTAAACATATATATGTATTTATGT [CACACA_negctrl_site1517]	9.87
AAACAATTTTTATTTTGTACATAACAATATATTTAT [XGTACX_site1375]	9.74
TTTTTATATTTTATTAGTACTTATTATATATATAAT [XGTACX_site4900]	9.7
CATAAAAATGTATCAAGTACACATTTATTTATCCAT [XGTACX_site152]	9.67
GTATAACACAAGTGAAGTACAGGGGTAAACATTTAT [XGTACX_site3203]	9.93
TACAGATAAAAGTACACACACACACCGATATATATA [CACACA_site4675]	10.6
AATTTAAATTCATCACGTACATACGTGAATATACAC [XGTACX_site5220]	9.76
ATTTTACATATTTGCACACATATATTTATATACATA [CACACA_site854]	10
TTATTTGTTTAATATGCATGCTAAAAGGGTTGATGT [TGCATGCA_site581]	9.56
GAGTAAAACAAATATACACACCATAAAGTTATAAAA [CACACA_site5008]	10.1
